Broadly, the viability is a read-out of living cells in per cent, often relative to untreated cells.

In PubChem BioAssay AID1956 (SRMLSC, 2009) one finds fold increase and viability data, which are given here for 63 compounds.

Each structure is given as a SMILES string. The list shows a part of the results. These are further read-outs of the screen, such as a control signal, another cell line or another target. No call is given for them.

This test in a line: compounds boosting herpes simplex virus growth – fold increase, host cell viability (AID 1956). Also: tested in PC3 cells. The conditions noted are these: HSV replication augmentation in cells; fold increase: measured here: primary screen fold increase 10 uM, at 10 µM, stronger effect = higher value; viability: measured here: host cell viability series, at 25 µM, stronger effect = lower value.
Consider `COc1ccc(Nc2nc(C(C)(C)C)nc3c2nnn3Cc2ccccc2Cl)cc1OC`, for which the fold increase was 1.19.
In the case of `Cc1ccc(NC(=O)CSCCc2ccccn2)nc1`, the fold increase came out at 1.35 and the viability is 94.8%.
Taken in the same sequence, the figures for `Nc1ccc2c3c(cccc13)CC2` were 1.33 and 97.8%.
For `CCN(CC)C(=O)CSC(Nc1cccc(F)c1)=C(C#N)C#N`, in that order: 5 and 91.9%.
Taken in the same sequence, the figures for `O=C(NCc1cccs1)C1CCCN(S(=O)(=O)c2cccc3cccnc23)C1` (stereo unspecified) were 1.43 and 92%.
`CCOC(=O)C1=C(CSc2nc(-c3ccccc3)ccc2C#N)OC(N)=C(C#N)C1c1ccc(OC)cc1` (stereo unspecified): the fold increase worked out at 2.24 and the viability came to 102%.
In the case of `CC1(C)CN(c2ccccc2)N(C(=O)c2ccc(F)cc2)C1=O`, the fold increase came to 1.54 and the viability was 95.3%.
As to `CCN(CC)c1ccc(C=N/C(C#N)=C(\N)C#N)cc1`, the fold increase stood at 1.34 and the viability amounted to 97.3%.
Consider `CCN(CC)C(=O)C1CCCN(C/C=C/c2ccccc2)C1` (stereo unspecified), for which the fold increase was 1.33 and the viability was 97.5%.
Taken in the same sequence, the figures for `CCc1ccc2[nH]c(=O)c(CN(Cc3ccccc3OC)Cc3nnnn3Cc3ccco3)cc2c1` were 1.34 and 68.9%.
`COc1cc(/C=C2\OC(=O)c3c(OC)cccc32)ccc1O`: the fold increase was found to be 2.42 and the viability came to 99.3%.
`CC(C)N1CCN(Cc2cccc(-c3ccco3)c2)CC1CCO` (stereo unspecified) came in with a fold increase of 1.33.
For `O=C(c1oc(=O)c2ccccc2c1-c1ccccc1)N1CCC(O)CC1`, the fold increase stood at 1.37 and the viability amounted to 93.9%.
For `O=C(Nc1ccc(Cl)cc1)NC1CCCCNC1=O` (stereo unspecified), in that order: 1.35 and 101%.
Compound `COc1cc(N2CCCC2)c(OC)cc1/C=C(/C#N)c1ccc(Br)cc1` returned a fold increase of 2.31.
With `COc1cc(/C=c2\s/c(=C(/C#N)C(=O)N3CCCC3)n(-c3ccccc3)c2=O)ccc1O`, the fold increase amounted to 4.36 and the viability amounted to 97%.
Taken in the same sequence, the figures for `C=CCN1C(=O)/C(=C\c2ccc(OC(=O)c3ccco3)c(OC)c2)SC1=S` were 8.86 and 99.2%.
For the compound `O=C1C=C(NCc2ccc(Cl)cc2)CCC1`, the fold increase was found to be 1.32.
For the compound `COC(=O)C1=COC(C)C2CN3CCc4c([nH]c5ccccc45)C3CC12` (stereo unspecified), the fold increase turned out to be 1.41 and the viability was 88.4%.
Regarding `COc1ccc(C2=CC(c3sccc3C)n3nnnc3N2)cc1` (stereo unspecified), the fold increase turned out to be 5.44 and the viability came out at 85.4%.
Take `O=C(O)CC1(CC(=O)NCc2ccncc2)CCCCC1`: the fold increase was 1.33 and the viability was determined as 99.1%.
In the case of `O=C(CSC1=NCCS1)Nc1ccc(S(=O)(=O)NC2CCCCC2)cc1`, the fold increase was 1.6 and the viability was determined as 103%.
Turning to `CC1CCN(C(=O)CSc2nc3ccccc3c(=O)n2Cc2ccc3c(c2)OCO3)CC1`, the fold increase was 1.37 and the viability was 97.8%.
As to `CCOC(=O)c1c(NC(=S)Nc2ccccc2)sc2c1CCN(CC)C2`, the fold increase was 1.32.
Take `Nc1ccc(Oc2ccccc2F)nc1`: the fold increase is 1.57 and the viability came out at 98.5%.
Take `Oc1ccc(-c2nc3ccccc3s2)c(O)c1`: the fold increase was 1.32.
For `CCOC(=O)Cc1csc(NC(=O)c2sc3nc4ccc(CC)cc4cc3c2N)n1`, the fold increase stood at 2.72 and the viability was 99.7%.
Taken in the same sequence, the figures for `N=c1oc2c3c4c(cc2cc1C(=O)Nc1ccccc1)CCCN4CCC3` were 6.54 and 94.4%.
Consider `CCCCN(C)C1=CC2=CC(=C(C#N)C#N)CCC2CC1` (stereo unspecified), for which the fold increase was determined as 8.28 and the viability came to 85.3%.
`CC(C)NC(=S)N/N=C/c1cccs1` came in with a fold increase of 1.22.
For `COc1ccc(C(=O)NCCn2ccc3ccccc32)c(OC)c1`, the fold increase was 1.58 and the viability worked out at 82%.
`COc1ccc2c(c1)CCc1sc(NC(=O)c3ccc(C)cc3)nc1-2` returned a fold increase of 1.16.
`C=CCN1C(=O)/C(=C/C(=O)OC)S/C1=N\NC(=O)c1ccccc1`: the fold increase came out at 1.33 and the viability came out at 95.2%.
Taken in the same sequence, the figures for `O=C1CCCC2=C1C(c1ccc(Cl)cc1)n1c(s/c(=C\c3ccc4ccncc4c3)c1=O)=N2` (stereo unspecified) were 1.45 and 65.8%.
With `O=[N+]([O-])c1ccc(C2=NN(c3ccccc3)C(c3ccco3)C2)cc1` (stereo unspecified), the fold increase amounted to 9.93 and the viability came to 102%.
In the case of `COc1ccc(C(=O)Nc2cccnc2Sc2ccc(Cl)cc2)cc1`, the fold increase came to 1.41 and the viability was determined as 103%.
`CC(=O)Oc1ccc2c(c1)Oc1cc(OC(C)=O)ccc1C21OC(=O)c2ccccc21`: the fold increase amounted to 8.15 and the viability is 97.3%.
Taken in the same sequence, the figures for `O=C(COC(=O)CCC(=O)c1cccs1)Nc1ncc(Cl)cc1Cl` were 1.36 and 96.1%.
For `COc1cc(-c2nnc(COc3ccc(Cl)cc3C)o2)cc(OC)c1OC`, the fold increase worked out at 1.07.
As for `Cn1c(=O)c(N)c2c3c(c(Br)ccc31)C(=O)c1ccccc1-2`, the fold increase was determined as 2.36 and the viability is 75%.
Take `COc1cc(Cl)c(C)cc1NC(=O)COc1ccccc1[N+](=O)[O-]`: the fold increase is 1.34 and the viability was 95.4%.
Taken in the same sequence, the figures for `CCOC(=O)CN1C(=O)S/C(=C/c2ccc(N3CCCCC3)o2)C1=O` were 3.44 and 96.4%.
For `O=C(NC(=O)c1ccccc1)NC1(C(F)(F)F)OCCO1`, in that order: 2.08 and 97%.
Taken in the same sequence, the figures for `CN1Cc2sc(NC(=S)NC(=O)c3ccccc3)c(C#N)c2CC1(C)C` were 3.73 and 89.3%.
Take `CCN(CC)c1ccc(C=C(c2nnnn2-c2ccccc2)c2nnnn2-c2ccccc2)cc1`: the fold increase amounted to 1.77 and the viability was 95.8%.
For the compound `CC(C)(C)c1nnc(NC(=O)CCn2cnc3ccccc3c2=O)s1`, the fold increase is 1.52 and the viability amounted to 85.8%.
On to `CCCCN(C)CCNC(=O)Cn1ncc2c(=O)oc3ccc(C)cc3c21`, for which the fold increase was found to be 1.32 and the viability stood at 94.5%.
For `COc1ccc(N=CC2=C(Nc3ccc(OC)cc3)c3c(C)nn(-c4ccccn4)c3CC2)cc1`, in that order: 5.73 and 22.2%.
Taken in the same sequence, the figures for `CCOC(=O)C1CCCCN1Cc1cccc(C(F)(F)F)c1` (stereo unspecified) were 1.32 and 98.1%.
Taken in the same sequence, the figures for `N#CC12COC3(CCCCC3C1(C#N)C#N)OC2=N` (stereo unspecified) were 1.46 and 94.5%.
`COc1ccccc1NC(=O)c1ccc(Br)o1`: the fold increase came to 1.38 and the viability amounted to 97.7%.
`CCCOc1ccc(C(=O)NNC(=S)NC(=O)c2cc(-c3ccccc3)nc3ccccc23)cc1` came in with a fold increase of 1.18.
`CCOC(=O)NC(=O)C(/C=N/c1sccc1C(=O)OC)=C(\C)O`: the fold increase was found to be 1.99 and the viability stood at 95.5%.
As to `COc1ccc(C(=O)c2sc3nc(-c4ccccc4)ccc3c2N)cc1OC`, the fold increase turned out to be 1.54 and the viability was 99.8%.
Take `O=Cc1sc(Nc2ccccc2)nc1Cl`: the fold increase is 1.6 and the viability stood at 93.8%.
As to `Cc1c(O)c2c3c(cccc3c1O)C(=O)N(c1ccccc1)C2=O`, the fold increase turned out to be 3.46 and the viability stood at 99.1%.
Taken in the same sequence, the figures for `CCCCn1c(NC(=O)c2ccccc2Cl)c(C#N)c2nc3ccccc3nc21` were 1.7 and 83.6%.
Taken in the same sequence, the figures for `CC1(C)CC(NC(=O)CCc2nnc(CCCCc3ccccc3)o2)CCO1` (stereo unspecified) were 1.38 and 107%.
On to `COc1ccc(C)cc1S(=O)(=O)N(C)CC(=O)N1CCC(C(N)=O)CC1`, for which the fold increase was determined as 1.59 and the viability came out at 98.9%.
For `Cc1ccc(C2CC(c3cccs3)n3nc(N)nc3N2)cc1` (stereo unspecified), in that order: 1.51 and 93.5%.
Regarding `CCOC(=O)C(=O)Cc1nc2ccccc2s1`, the fold increase is 2.29 and the viability was determined as 88.3%.
For `O=S(=O)(Nn1c(O)c(C=C2N=c3ccccc3=N2)sc1=S)c1ccccc1`, in that order: 1.39 and 93.8%.
As for `Cn1c(=S)[nH]c2[nH]c(=O)cnc2c1=O`, the fold increase worked out at 1.43 and the viability worked out at 97.2%.
